In all, about 48,000 compounds went through this assay and about 450 (0.94%) were called active. Another 19% or so got no clear call; they are omitted. Calls come from the whole dose curve; as a rule, active = well fitted inhibition curve with a large enough effect; inconclusive = small, poorly fitted or top-dose-only effect; inactive = no such curve, though single readings can be large or run the other way. The list shows a part of the results.

This assay in a line: Primary qHTS for Identification of Small Molecule Inhibitors of Huntingtin Promoter Activity. Note: nearly all actives have a fitted effect of over 50% in size. Particulars: HEK293 HTT promoter firefly luciferase reporter (activity 0% = vehicle and -100% = no light), 24 h; series mostly up to 57.5 µM; activity change, negative = inhibition: at the top concentration. Put shortly: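 Quantitative HTS used concentration series of up to 57.5 uM final on HEK293 luciferase reporter cells, 24 h at 37 degrees C. Readout was Dual-Glo firefly luminescence.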
On to `Cc1cc(Cl)ccc1NC(=O)C1CCN(S(=O)(=O)c2ccc3[nH]c(=O)ccc3c2)CC1`, for which the “activity change, negative = inhibition” value is inactive: -9.2%.
The same measure for `COc1ccc(CNC(=O)c2cc3sccc3n2C)cc1`: inactive: -1.33%; for `Cc1ccc2nc(SC(Cc3cc(Cl)ccc3Cl)C(=O)O)[nH]c2c1` (stereo not given): inactive: -1.39%; for `Cc1cccc(Cn2c(=O)n(CCc3ccccc3)c(=O)c3sc4ccccc4c32)c1`: inactive: -6.61%.
For `Cc1ccc(CCNC(=O)CCSCc2ccccc2F)cc1` the value was inactive: -11%.
Regarding `CCOC(=O)c1cc(-c2ccccc2)nn1Cc1ccccc1`, the “activity change, negative = inhibition” value is inactive: 72.7%.
For `O=C(CCOc1ccccc1)N(Cc1cccnc1)c1nc2c(Cl)cccc2s1` the value was inactive: -24.3%; for `O=S(=O)(Nc1c(F)cccc1F)c1ccc2c(c1)OCCO2`, inactive: -4.31%; for `COc1ccc(C)cc1NC(=O)C(CCSC)NS(=O)(=O)c1ccc2c(c1)oc(=O)n2C` (stereo not given), inactive: -32.9%.
The same measure for `CCn1nnc2cc(C(=O)Nc3cccc(C(F)(F)F)c3)ccc21`: inactive: 20.6%; for `CCOC(=O)N1CCc2c(sc3c2c(=O)n(Cc2ccccc2)c(=O)n3CC(=O)Nc2ccccc2F)C1`: inactive: -7.92%.
As to `CC(C)NC(=O)c1cnc2sc(N3CCCCCC3)nn2c1=O`, the “activity change, negative = inhibition” value is inactive: 10.9%.
For `CCOC(=O)c1c(C)[nH]c(CCC(=O)Nc2ccc(N(CC)CC)cc2C)c1C`, the “activity change, negative = inhibition” value was inactive: -16.4%.
In the case of `COc1ccc(CN(C(=O)Nc2ccccc2)c2ccccn2)cc1OC`, the “activity change, negative = inhibition” value was inactive: 7.44%.
On to `Cc1ccc(S(=O)(=O)N(Cc2nc(-c3ccc(Cl)cc3)no2)C2CCCCC2)cc1`, for which the “activity change, negative = inhibition” value is inactive: -25.9%.
Turning to `CCOCCCNC(=O)N1CCN(S(=O)(=O)c2ccc3c(ccn3C)c2)CC1`, the “activity change, negative = inhibition” value is inactive: -15.2%.
On to `COc1ccc(-c2noc(-c3ccc(N4CCOCC4)c([N+](=O)[O-])c3)n2)cc1OC`, for which the “activity change, negative = inhibition” value is inactive: -5.78%.
Turning to `COc1ccccc1N1CCN(CCC(=O)Nc2cccc(F)c2)CC1`, the “activity change, negative = inhibition” value was inactive: -27.7%.
Consider `Cn1c(=O)c2c(SCC(=O)NCC3CCCO3)nc(-c3ccccc3F)nc2n(C)c1=O` (stereo not given), for which the “activity change, negative = inhibition” value is inactive: -7.87%.
On to `COc1cccc(/C=C(\C#N)c2nc3ccc(C)cc3[nH]2)c1`, for which the “activity change, negative = inhibition” value was inactive: 25.7%.
`CCOC(=O)c1ccc(NS(=O)(=O)c2cc3c(cc2C)n(C)c(=O)c(=O)n3C)cc1`: the “activity change, negative = inhibition” value was inactive: -16.1%.
For `CCOc1ccc(NC(=O)CSc2oc(-c3cccs3)nc2S(=O)(=O)c2ccc(Cl)cc2)cc1`, the “activity change, negative = inhibition” value is inactive: -12.6%.
As for `O=C(Cn1c(=O)n(-c2ccccc2)c(=O)c2ccc(C(=O)NCc3ccc4c(c3)OCO4)cc21)Nc1ccc(Br)cc1F`, the “activity change, negative = inhibition” value was inactive: -7.08%.
As for `CCOc1ccc(CNC(=O)c2cnc(SC)nc2CC)cc1`, the “activity change, negative = inhibition” value is inactive: -2.59%.
The same measure for `CCCCSCCCNC(=O)CN1C(=O)COc2ccc(S(=O)(=O)N3CCCC3)cc21`: inactive: -20.8%; for `Cc1cc(NC(=O)c2ccc(Cl)c(Cl)c2)ccc1-c1cc2ccccc2oc1=O`: inactive: -1.77%.
The same measure for `COc1ccc(NC(=O)Cn2c(=O)n(-c3ccccc3)c(=O)c3ccc(C(=O)NCc4ccc5c(c4)OCO5)cc32)cc1`: inactive: -13.2%; for `CC1(C)C(=O)N(CC(=O)Nc2ccc(OC(F)(F)F)cc2)c2ccccc21`: inactive: -27.6%; for `CCCSc1ncc(Cl)c(C(=O)Nc2ccc(CC)cc2)n1`: inactive: -14.4%.
On to `Cc1ccc(CNC(=O)CSc2nc3ccsc3c(=O)n2-c2ccc(C(=O)O)cc2)cc1`, for which the “activity change, negative = inhibition” value was inactive: -7.26%.
The same measure for `CCN(CCCNC(=O)c1cc2cc3cc(OC)ccc3nc2s1)c1ccccc1`: inactive: -1.34%; for `CCOC(=O)C1CCC(CN(Cc2c(Cl)cccc2Cl)S(=O)(=O)c2ccc(F)c(C)c2)CC1` (stereo not given): inactive: -24.2%.
Regarding `COc1cccc(NC(=O)CCNS(=O)(=O)c2ccc3c(c2)CCCC(=O)N3)c1`, the “activity change, negative = inhibition” value is inactive: -6.05%.
The same measure for `O=C(CCn1cccn1)Nc1ccc(Br)cc1F`: inactive: 24.8%; for `O=c1c(NCc2cccs2)nccn1-c1ccc(F)cc1`: inactive: 41%.
`COc1cccc(NC(=O)CN(CCc2ccccc2)S(=O)(=O)c2ccc(Cl)cc2)c1`: the “activity change, negative = inhibition” value was inactive: -18.2%.
As to `Cc1nc2ccccc2n1CCc1nc2c3ccccc3nc(SCc3ccc(C#N)cc3)n2n1`, the “activity change, negative = inhibition” value is inactive: 15.7%.
As to `Cc1cccc(-c2nc3c4ccccc4nc(NCCc4ccccc4)n3n2)c1`, the “activity change, negative = inhibition” value was inactive: 41.8%.
As to `Nc1ccn([C@@H]2O[C@H](CO)[C@@H](O)C2(F)F)c(=O)n1`, the “activity change, negative = inhibition” value is inactive: -22.3%.
The same measure for `O=C(COCc1cc(-c2ccc(F)cc2)on1)Nc1cc(F)ccc1F`: inactive: -15.6%; for `O=S(=O)(NCc1nc2cccnc2n1Cc1ccccc1Cl)c1ccc2c(c1)CCCC2`: inactive: -15.3%; for `CCN(CC)CCCNC(=O)Cc1csc2nc(-c3ccc(Cl)cc3)cn12`: inactive: -11.4%.
Take `CCc1cc2c(cc3c(=O)n(CCCC(=O)NCc4cccc(Cl)c4)ncn32)s1`: the “activity change, negative = inhibition” value was inactive: -31.1%.
On to `Cc1cc2c(n1-c1ccc(C(=O)NCc3ccccc3Cl)cc1)CCCC2`, for which the “activity change, negative = inhibition” value is inactive: 27.5%.
The same measure for `COc1ccccc1N1CCN(C(=O)c2c(C)oc3ncn(C)c(=O)c23)CC1`: inactive: 10.5%.
The same measure for `O=C(CCSCc1ccccc1Cl)NCc1ccc(F)cc1Cl`: inactive: -14.6%.
For `Cc1cccc(CCNC(=O)c2cc3c(=O)n(C)c4ccccc4c3n2C)c1` the value was inactive: 5.35%; for `CC(C)c1cnc2c(c1SCC(=O)NCc1ccccc1Cl)c(=O)n(C)c(=O)n2C`, inactive: -1.65%.
For the molecule `O=C(c1ccc2c(c1)N(Cc1cccc(F)c1)C(=O)c1ccccc1S2)N1CCCC1`, the “activity change, negative = inhibition” value was inactive: 9.41%.
For `COc1ccc(C(CC(=O)Nc2ccc(C(C)=O)cc2)N2Cc3ccccc3C2=O)cc1` (stereo not given) the value was inactive: 65.7%; for `Cc1cccc2c1-c1sc(C(=O)N(C)c3cccc(Cl)c3)cc1CO2`, inactive: -25.2%; for `COc1ccc(NC(=O)NC2COc3ccccc3C2)cc1Cl` (stereo not given), inactive: 23.2%.
The same measure for `Cc1ccc(CN2C(=O)c3ccccc3CC2(C)C(=O)NC2CCCCC2)cc1` (stereo not given): inactive: -16.8%; for `Cc1cccc(N2CCN(C(=O)c3noc4c3COc3ccc(C)cc3-4)CC2C)c1` (stereo not given): inactive: -9.09%.
The same measure for `CCOc1ccccc1C(=O)NC1(C(F)(F)F)C(=O)Nc2c1c(=O)[nH]c(=O)n2-c1ccc(F)cc1` (stereo not given): inactive: -10.5%; for `CSc1ccc(CCNC(=O)CCc2c(C)nc3ncnn3c2C)cc1`: inactive: -11%; for `COc1ccccc1N1CCN(CCN(C(=O)C2CCCCC2)c2ccccn2)CC1`: inactive: -11.1%.
As for `CN1C(=O)CC(c2ccccc2)C1=O` (stereo not given), the “activity change, negative = inhibition” value is inactive: -7.2%.
For `OC[C@H]1O[C@@H](Oc2cc(O)cc(C=Cc3ccc(O)cc3)c2)[C@H](O)[C@@H](O)[C@H]1O` the value was inactive: 6.01%; for `Cc1ccc(C(=O)Nc2cccc3cccnc23)cc1Cl`, inactive: 58.2%; for `COC(=O)c1c(-c2cccs2)csc1NC(=O)COc1ccc(C)cc1`, inactive: -12.2%.
As to `CN1CCN(c2ncc3c(n2)CCN(Cc2ccc(Br)s2)C3)CC1`, the “activity change, negative = inhibition” value is inactive: -16.7%.
As for `Cc1cccn2c(=O)c(C(=O)NCc3cccc(F)c3)cnc12`, the “activity change, negative = inhibition” value was inactive: 4.02%.
As for `Cc1ccc(Cl)cc1Nc1nn2c(=O)c3ccc(C(=O)NCc4ccc(F)cc4)cc3nc2s1`, the “activity change, negative = inhibition” value is inactive: -13.7%.
As to `CCCOc1ccc(-c2nc(SCC(=O)c3ccc(Cl)cc3)n[nH]2)cc1`, the “activity change, negative = inhibition” value is inactive: -6.21%.
The same measure for `CC(=O)c1ccc(N2CCN(C(=O)C3CCN(S(=O)(=O)c4cn(C)cn4)CC3)CC2)cc1`: inactive: -0.501%; for `Cn1c(=O)c2sccc2n2c(CCC(=O)NCc3ccc(Cl)cc3)nnc12`: inactive: -3%.
For the molecule `CN(C)CCN(Cc1ccccc1)c1ccccn1`, the “activity change, negative = inhibition” value was inactive: 8.65%.
The same measure for `COc1ccc(NC(=O)c2oc3ccccc3c2NC(=O)Cc2coc3c(C)c(C)ccc23)cc1`: inactive: -6.86%; for `COc1ccc(-c2nc3cc(NC(=O)CSc4ccc(C)cc4)ccc3o2)cc1`: inactive: 12.6%.
For the molecule `Fc1ccc(Cl)cc1-c1nc(Nc2ccncc2)c2nccnc2n1`, the “activity change, negative = inhibition” value is inactive: -0.449%.
The same measure for `CCc1ccc(NC(=O)Cn2ccn(-c3ccc(C)c(C)c3)c(=O)c2=O)cc1`: inactive: 22.4%.
As to `Cc1ccc(S(=O)(=O)c2nc(S(=O)(=O)c3ccccc3)sc2NCCCOC(C)C)cc1`, the “activity change, negative = inhibition” value was inactive: -26%.
The same measure for `CCOc1ccc(NC(=O)/C(C#N)=C\c2ccc(-c3ccc(Cl)cc3)o2)cc1`: inactive: -3.9%.
`Cc1c(Cl)cccc1NC(=O)CCS(=O)(=O)c1ccc2c(c1)CC(=O)N2C`: the “activity change, negative = inhibition” value is inactive: -1.83%.
Turning to `O=C(CSc1n[nH]c(-c2ccc(F)cc2)n1)NCCc1ccccc1`, the “activity change, negative = inhibition” value is inactive: -7.04%.
For `CCN(CC)CCNC(=O)c1c2c(nc3ccccc13)C(=O)N(C1CCCCC1)C2` the value was inactive: -8.07%; for `Cc1ccc(S(=O)(=O)NCCc2cn3ccsc3n2)c(C)c1`, inactive: -4.43%.
For the molecule `COc1cccc(NC(=O)Cn2cc(C(=O)c3ccc(C)cc3)c(=O)c3cc(OC)ccc32)c1`, the “activity change, negative = inhibition” value was inactive: -17.9%.
As for `Cc1ccccc1NC(=O)Cn1c(=O)n(Cc2ccc3c(c2)OCO3)c(=O)c2ccccc21`, the “activity change, negative = inhibition” value was inactive: -15.8%.
For `CCc1nc2nc(C)cc(Nc3cccc(C)c3C)n2n1` the value was inactive: -26.7%; for `Cc1cc2ccccc2n1CCNC(=O)c1ccc(Br)cc1`, inactive: -18%; for `COc1ccc(CNC(=O)CCc2c(C)c3cc4c(C)c(C)oc4cc3oc2=O)cc1OC`, inactive: -3.31%.
For `CC(C)c1ccc(OCC(=O)N(Cc2cccs2)C2CCS(=O)(=O)C2)cc1` (stereo not given) the value was inactive: -23.2%.
For `CCOc1cc(Cl)c(S(=O)(=O)n2ccnc2)cc1Cl` the value was inactive: 2.41%.
As for `Cc1nnc(N2CCC(C(=O)NCCC(C)C)CC2)c2nn(-c3ccc(Cl)cc3)c(C)c12`, the “activity change, negative = inhibition” value was inactive: -12.8%.
The same measure for `CCC(C(=O)N1CCN(c2ccccc2)CC1)n1c(C)c2cnn(-c3ccccc3)c(=O)c2c1C` (stereo not given): inactive: -22.9%; for `O=C(NC1CCCC1)c1ccc2c(=O)n(Cc3ccccc3)c(SCc3cccc(F)c3)nc2c1`: inactive: -1.48%.
On to `CCN(CC)c1ccc(NC(=O)CCCN2C(=O)C(c3ccccc3)Oc3cccnc32)c(C)c1` (stereo not given), for which the “activity change, negative = inhibition” value was inactive: -8.68%.
The same measure for `COC(=O)c1ccc(NC(=O)CN2C(=O)CC(c3ccccc3)Sc3ccccc32)cc1` (stereo not given): inactive: 12.9%; for `Cc1cc(C)n(C(C)CC(=O)Nc2ccc(C)c(N(C)C)c2)n1` (stereo not given): inactive: 2.73%; for `C=C(C)CSc1nc(-c2ccccc2)cc(-c2ccc(OC)cc2)c1C#N`: inactive: -20.3%.
Turning to `Cc1ccc(N2CC(C(=O)Nc3ccc(N(C)C)cc3)CC2=O)cc1Cl` (stereo not given), the “activity change, negative = inhibition” value is inactive: 3.91%.
For `Fc1ccccc1N1CCN(c2nc3ccccc3c3nc(-c4ccccc4)nn23)CC1` the value was inactive: -5.14%.
For `CSc1ccc(-c2nnc(NC(=O)c3ccc4c(c3)OCCO4)o2)cc1`, the “activity change, negative = inhibition” value was inactive: -2.65%.
For `CC(=O)Nc1cccc(-n2cc3c(c2-c2ccccc2Cl)c(=O)n(C)c(=O)n3C)c1` the value was inactive: 0.542%; for `O=C(CCn1ccc2cc(S(=O)(=O)N3CCCC3)ccc21)NCc1ccccc1Br`, inactive: -22.5%; for `COc1ccc(C)cc1Nc1cc(C)nc(C)n1`, inactive: 49.9%.
On to `O=C(CN1C(=O)c2cccnc2Oc2ccc(Cl)cc21)Nc1cccc(C(F)(F)F)c1`, for which the “activity change, negative = inhibition” value is inactive: -22.7%.
For `CC(C)Oc1ccc(C(=O)Nc2c(C(=O)Nc3cccc(F)c3)oc3ccccc23)cc1` the value was inactive: 4.57%.
